In patent US20220242946A1 (Johns Hopkins, published 2022):

Target: T1, biotinylated human IL-2Rα extracellular domain (residues 1-214) (human, UniProt P01589 22-240, biotinylated on the C-terminal biotin acceptor peptide with BirA ligase)
T1 construct: extracellular domain; also called hIL-2Rα; immobilized IL-2Rα; not shown: hexahistidine tag (Ni-NTA purification)
T1 sequence: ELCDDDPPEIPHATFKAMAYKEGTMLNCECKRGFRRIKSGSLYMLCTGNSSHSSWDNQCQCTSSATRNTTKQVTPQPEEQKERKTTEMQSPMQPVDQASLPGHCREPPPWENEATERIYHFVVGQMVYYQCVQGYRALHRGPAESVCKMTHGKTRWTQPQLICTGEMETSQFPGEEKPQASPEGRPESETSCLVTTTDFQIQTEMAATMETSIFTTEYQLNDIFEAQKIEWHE
Assay: bio-layer interferometry equilibrium titration, biotinylated IL-2Rα on streptavidin tips
Method: Less than 5 signal units (nm) of receptor was immobilized to minimize mass transfer effects. […] Surface regeneration for all interactions was conducted using a 15 second exposure to 0.1 M glycine pH 3.0. Experiments were carried out in PB SA (phosphate-buffered saline, pH 7.3 plus 0.1% bovine serum albumin (BSA, Thermo Fisher Scientific)) at 25° C. Data was visualized and processed using the Octet® Data Analysis software version 7.1 (Molecular Devices). Equilibrium titration curve fitting and KD value determination was implemented using GraphPad Prism, assuming all binding interactions to be first order.

B1: F5111 IC LN15 (hIL-2 fused by a (Gly4Ser)3 linker to the N-terminus of the F5111 light chain) (other)
heavy: QLQLQESGPGLVKPSQTLSLTCTVSGGSISSGGYYWSWIRQHPGKGLEWIGYIYYSGSTYYNPSLKSRVTISVDTSKNQFSLKLSSVTAADTAVYYCARTPTVTGDWFDPWGRGTLVTVSS[here human IgG1 constant region without letters]
light: [here about 150 residues without letters]GGGGSGGGGSGGGGSNFMLTQPHSVSESPGKTVTISCTRSSGSIASNYVQWYQQRPGSSPTTVIYEDNQRPSGVPDRFSGSIDSSSNSASLTISGLKTEDEADYYCQSYDSSNVVFGGGTKLTVLGQPKAAPSVTLFPPSSEELQANKATLVCLISDFYPGAVTVAWKADSSPVKAGVETTTPSKQSNNKYAASSYLSLTPEQWKSHRSYSCQVTHEGSTVEKTVAPTECS
notes: Antibody-cytokine fusion (immunocytokine); also called F5111 immunocytokine LN15; single-chain IL-2/F5111 IC
- EC50 (read off the curve): ~6 nM
